# Measurements as given in the supplement of paper PMC8728848.
# Some of the results follow.
# Legend:
# Test in all cases: glycan array binding signal (z-score within array); higher = stronger binding
# Conditions in all cases: glycan notation: IUPAC condensed, linker removed
# [1] = target: GalNAc3S(b1-4)[Fuc(a1-3)]GlcNAc
# Method in brief: (§1)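 Glycan array binding is given as a within-array Z-score, which can be read as non-binding when negative. The arrays, 3228 of them, came from the Consortium for Functional Glycomics database and were retained only where the protein sequence was available. Z-scores were averaged across arrays of the same protein sequence at different concentrations or buffers and across linkers.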
# GalNAc4S6S(b1-4)GlcNAc = target: GalNAc4S6S(b1-4)GlcNAc
# Method in brief: as §1
# GalNAc6S(b1-4)GlcNAc = target: GalNAc6S(b1-4)GlcNAc
# Method in brief: as §1
# Glc(a1-4)Glc = target: Glc(a1-4)Glc
# Method in brief: as §1
# [2] = target: Glc(a1-4)Glc(a1-4)Glc(a1-4)Glc
# Method in brief: as §1
# Glc(a1-6)Glc(a1-6)Glc = target: Glc(a1-6)Glc(a1-6)Glc
# Method in brief: as §1
# [3] = target: Glc(a1-6)Glc(a1-6)Glc(a1-6)Glc
# Method in brief: as §1
# Glc(b1-4)Glc = target: Glc(b1-4)Glc
# Method in brief: as §1
# Glc(b1-6)Glc = target: Glc(b1-6)Glc
# Method in brief: as §1
# GlcA(b1-3)Gal = target: GlcA(b1-3)Gal
# Method in brief: as §1
# GlcA(b1-3)GlcNAc = target: GlcA(b1-3)GlcNAc
# Method in brief: as §1
# GlcA(b1-6)Gal = target: GlcA(b1-6)Gal
# Method in brief: as §1
# [4] = target: GlcA3S(b1-3)Gal(b1-4)GlcNAc(b1-2)Man
# Method in brief: as §1
# [5] = target: GlcA3S(b1-3)Gal(b1-4)GlcNAc(b1-3)Gal(b1-4)Glc
# Method in brief: as §1
# [6] = target: GlcNAc(a1-3)Gal(b1-4)GlcNAc
# Method in brief: as §1
# [7] = target: GlcNAc(a1-4)Gal(b1-3)GlcNAc
# Method in brief: as §1
# [8] = target: GlcNAc(a1-4)Gal(b1-4)GalNAc
# Method in brief: as §1
# [9] = target: GlcNAc(a1-4)Gal(b1-4)GlcNAc
# Method in brief: as §1
# [10] = target: GlcNAc(a1-4)Gal(b1-4)GlcNAc(b1-3)Gal(b1-4)Glc
# Method in brief: as §1
# [11] = target: GlcNAc(a1-4)Gal(b1-4)GlcNAc(b1-3)Gal(b1-4)GlcNAc
# Method in brief: as §1
# [12] = target: GlcNAc(a1-4)Gal(b1-4)GlcNAc(b1-3)Gal(b1-4)GlcNAc(b1-3)Gal(b1-4)GlcNAc
# Method in brief: as §1
# [13] = target: GlcNAc(a1-4)Gal(b1-4)GlcNAc(b1-3)Gal(b1-4)[Fuc(a1-3)]GlcNAc(b1-3)Gal(b1-4)[Fuc(a1-3)]GlcNAc
# Method in brief: as §1
# [14] = target: GlcNAc(a1-6)Gal(b1-4)GlcNAc
# Method in brief: as §1
# [15] = target: GlcNAc(b1-2)Gal(b1-3)GalNAc
# Method in brief: as §1
# [16] = target: GlcNAc(b1-2)Man(a1-3)[GlcNAc(b1-2)Man(a1-6)]Man(b1-4)GlcNAc(b1-4)GlcNAc
# Method in brief: as §1
# [17] = target: GlcNAc(b1-2)Man(a1-3)[GlcNAc(b1-2)Man(a1-6)]Man(b1-4)GlcNAc(b1-4)[Fuc(a1-6)]GlcNAc
# Method in brief: as §1
# [18] = target: GlcNAc(b1-2)Man(a1-3)[GlcNAc(b1-4)][GlcNAc(b1-2)Man(a1-6)]Man(b1-4)GlcNAc(b1-4)GlcNAc
# Method in brief: as §1
# [19] = target: GlcNAc(b1-2)Man(a1-3)[GlcNAc(b1-4)][GlcNAc(b1-2)Man(a1-6)]Man(b1-4)GlcNAc(b1-4)[Fuc(a1-6)]GlcNAc
# Method in brief: as §1
# [20] = target: GlcNAc(b1-2)[GlcNAc(b1-4)]Man(a1-3)[GlcNAc(b1-2)Man(a1-6)]Man(b1-4)GlcNAc(b1-4)GlcNAc
# Method in brief: as §1
# [21] = target: GlcNAc(b1-2)[GlcNAc(b1-4)]Man(a1-3)[GlcNAc(b1-4)][GlcNAc(b1-2)Man(a1-6)]Man(b1-4)GlcNAc(b1-4)GlcNAc
# Method in brief: as §1
# [22] = target: GlcNAc(b1-2)[GlcNAc(b1-4)]Man(a1-3)[GlcNAc(b1-4)][GlcNAc(b1-2)[GlcNAc(b1-6)]Man(a1-6)]Man(b1-4)GlcNAc(b1-4)GlcNAc
# Method in brief: as §1
# [23] = target: GlcNAc(b1-2)[GlcNAc(b1-4)]Man(a1-3)[GlcNAc(b1-4)][GlcNAc(b1-2)[GlcNAc(b1-6)]Man(a1-6)]Man(b1-4)GlcNAc(b1-4)[Fuc(a1-6)]GlcNAc
# Method in brief: as §1
# [24] = target: GlcNAc(b1-2)[GlcNAc(b1-6)]Man(a1-6)[GlcNAc(b1-2)Man(a1-3)]Man(b1-4)GlcNAc(b1-4)GlcNAc
# Method in brief: as §1
# [25] = target: GlcNAc(b1-2)[GlcNAc(b1-6)]Man(a1-6)[GlcNAc(b1-2)Man(a1-3)]Man(b1-4)GlcNAc(b1-4)[Fuc(a1-6)]GlcNAc
# Method in brief: as §1
# [26] = target: GlcNAc(b1-2)[GlcNAc(b1-6)]Man(a1-6)[GlcNAc(b1-4)][GlcNAc(b1-2)Man(a1-3)]Man(b1-4)GlcNAc(b1-4)GlcNAc
# Method in brief: as §1
# GlcNAc(b1-3)Fuc = target: GlcNAc(b1-3)Fuc
# Method in brief: as §1
# GlcNAc(b1-3)Gal = target: GlcNAc(b1-3)Gal
# Method in brief: as §1
# [27] = target: GlcNAc(b1-3)Gal(b1-3)GalNAc
# Method in brief: as §1
binder,measurement,setting,value
GS13686A-pdi-553-26-553 (Parabacteroides distasonis) (protein) NENPDKPTDDVNYNMNEPRLASTLRGGLIIEGNVEQRLKPLQIDFYSQMTVDGGGWGTKNYIQDDEWNNLVWEEYLKQIASINIVIRSLTEKDKDAYANTIAFARIWRVYVHTLAADKFGPMPFPAYEIVEANPPYKSLKDIYDEYFRELDAAINGFNDSAQPIFSDAGIDLIYKNDVSKWKRFANSLRLRLAVRLTEVDQEKCIAEANAAISSPAGLISDKADNAYMPPKADGSWGQDYNYTMFQITWSGPICMSKSVEKLVTNIGGVAWPQGVVNQTSGVAVSSVHPEKVDPRAPKIFQPGIENGDWKGLVYGPKAEEANTGIYQSKQCAELGFIIKDGYPYKSRPYDLFLSEEVHFLKAELYARGFIAGDAKSEYEAGVRASFATWGVTSEVDDYLTSTEKNEAGTSARYDDQQGAGNTALEKIITQKYIAGIPDLAQEGWNDKRRLNLPRLDVAVYRDQAVYNNNDKDILKSANFIKRMRYPTKESLINATEYEKGKSMLGGKGDIVSTPLWWDKNSNYCTSSK,glycan array binding signal (z-score),[1],-0.332
same,glycan array binding signal (z-score),GalNAc4S6S(b1-4)GlcNAc,-0.423
same,glycan array binding signal (z-score),GalNAc6S(b1-4)GlcNAc,-0.366
same,glycan array binding signal (z-score),Glc(a1-4)Glc,-0.119
same,glycan array binding signal (z-score),[2],-0.292
same,glycan array binding signal (z-score),Glc(a1-6)Glc(a1-6)Glc,-0.242
same,glycan array binding signal (z-score),[3],-0.331
same,glycan array binding signal (z-score),Glc(b1-4)Glc,0.169
same,glycan array binding signal (z-score),Glc(b1-6)Glc,-0.053
same,glycan array binding signal (z-score),GlcA(b1-3)Gal,-0.112
same,glycan array binding signal (z-score),GlcA(b1-3)GlcNAc,-0.083
same,glycan array binding signal (z-score),GlcA(b1-6)Gal,-0.199
same,glycan array binding signal (z-score),[4],0.201
same,glycan array binding signal (z-score),[5],-0.392
same,glycan array binding signal (z-score),[6],-0.48
same,glycan array binding signal (z-score),[7],-0.255
same,glycan array binding signal (z-score),[8],-0.313
same,glycan array binding signal (z-score),[9],-0.164
same,glycan array binding signal (z-score),[10],-0.345
same,glycan array binding signal (z-score),[11],-0.312
same,glycan array binding signal (z-score),[12],-0.146
same,glycan array binding signal (z-score),[13],0.871
same,glycan array binding signal (z-score),[14],-0.427
same,glycan array binding signal (z-score),[15],-0.335
same,glycan array binding signal (z-score),[16],-0.274
same,glycan array binding signal (z-score),[17],-0.3
same,glycan array binding signal (z-score),[18],-0.205
same,glycan array binding signal (z-score),[19],0.181
same,glycan array binding signal (z-score),[20],-0.129
same,glycan array binding signal (z-score),[21],-0.077
same,glycan array binding signal (z-score),[22],-0.24
same,glycan array binding signal (z-score),[23],-0.179
same,glycan array binding signal (z-score),[24],-0.285
same,glycan array binding signal (z-score),[25],0.175
same,glycan array binding signal (z-score),[26],0.141
same,glycan array binding signal (z-score),GlcNAc(b1-3)Fuc,-0.21
same,glycan array binding signal (z-score),GlcNAc(b1-3)Gal,-0.394
same,glycan array binding signal (z-score),[27],-0.329
